# Test results: the BET-seq Pho4 binding data (Le et al. 2018)
# Some of the results follow. Values were computed here from the reads of four pooled replicates and scatter widely.
# Target: T1, Pho4 (S. cerevisiae) (UniProt P07270)
# T1 sequence: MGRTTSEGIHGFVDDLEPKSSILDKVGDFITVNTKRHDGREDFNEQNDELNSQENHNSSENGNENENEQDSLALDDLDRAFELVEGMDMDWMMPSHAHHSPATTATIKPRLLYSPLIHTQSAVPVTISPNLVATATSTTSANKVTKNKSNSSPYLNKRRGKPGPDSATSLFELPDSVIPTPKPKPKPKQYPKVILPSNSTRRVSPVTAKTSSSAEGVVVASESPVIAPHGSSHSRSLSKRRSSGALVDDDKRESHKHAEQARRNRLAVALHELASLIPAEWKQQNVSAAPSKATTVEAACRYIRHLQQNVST
# Experiment: relative binding free energy (BET-seq); higher = weaker binding
# Details: reference: library average
row,Sequence,relative binding free energy [kcal/mol]
1,AGTTGCACGTGAGTGT,0.24
2,GGTTTCACGTGTGTGC,0.31
3,TTTAGCACGTGAGTAC,0.07
4,TGAGGCACGTGGGTGA,-0.23
5,GGGCGCACGTGTTGTT,-0.06
6,GTAGACACGTGGGAGG,-0.01
7,TACTACACGTGGTGGG,0.11
8,TAAATCACGTGTGGCT,0.08
9,AGTGACACGTGATAGA,0.17
10,CATGGCACGTGGGATA,-0.24
11,ATGATCACGTGTTTGA,0.12
12,TGTTCCACGTGATAGA,0.22
13,AAGTTCACGTGTTCAT,0.36
14,GTGTTCACGTGTATTG,0.23
15,TGTGGCACGTGGTCCA,-0.19
16,TTATACACGTGGCGTA,-0.08
17,AATTCCACGTGAGGGG,0.38
18,AGTTGCACGTGAATTT,0.18
19,GGGAACACGTGGTAGA,0.12
20,GTGTGCACGTGACTTG,0.14
21,TGGGGCACGTGCCTTG,-0.16
22,TGGTCCACGTGTTGCT,0.01
23,CACGGCACGTGGAGGT,0.02
24,ATTTCCACGTGTTTTA,-0.03
25,GTTGACACGTGCGTGG,0.14

row,Sequence,relative binding free energy [kcal/mol]
1,CGTTTCACGTGTGGTT,0.32
2,TGGGGCACGTGGTTTG,-0.13
3,TTACGCACGTGATGTT,0
4,AGTCTCACGTGGGTAA,0.18
5,ATATGCACGTGTTAGC,0.01
6,TAAAGCACGTGGTTGG,-0.2
7,GCCATCACGTGGGGGG,-0.1
8,CGTATCACGTGGATTT,0.28
9,TGGGCCACGTGGGGGC,-0.19
10,GCCATCACGTGGGGGT,-0.03
11,GTAGACACGTGGTTCT,0.09
12,GGGGGCACGTGCGGAA,-0.2
13,AAAAGCACGTGTTATT,0.02
14,GAGTGCACGTGGGTTC,-0.06
15,GCTTTCACGTGTTTTG,0.3
16,TTTTCCACGTGGTCGG,-0.02
17,CAAGTCACGTGGAGTG,0.06
18,GAGGTCACGTGACGTG,0.17
19,CATGTCACGTGCTTGT,-0.09
20,TGGGTCACGTGTAAAG,0.07
21,CTTGTCACGTGCGAGG,-0.03
22,GGTTGCACGTGTATGG,0.07
23,AGGGCCACGTGCGGGT,-0.3
24,ATGTGCACGTGTCTGG,-0.16
25,GTCGTCACGTGGACGG,0.13

row,Sequence,relative binding free energy [kcal/mol]
1,TGTGGCACGTGAAAGT,0.11
2,AGGTTCACGTGATGCT,0.41
3,TTATGCACGTGAGGGC,0.2
4,GTCGTCACGTGTCGGT,0.13
5,ACCGGCACGTGTGGGG,-0.15
6,GATAGCACGTGGGTCG,-0.1
7,GTTGTCACGTGCCAGT,0.14
8,GTTTGCACGTGAGGAC,0.27
9,GTTTACACGTGTCATA,0.41
10,CCGGGCACGTGGTGGT,-0.21
11,GTGTGCACGTGCTTTT,-0.03
12,CGGGACACGTGCGTGG,0
13,AGCGGCACGTGGGATT,-0.22
14,TTTGGCACGTGTATGC,-0.08
15,AAGATCACGTGGGCGA,0.14
16,CATTGCACGTGTTGGA,0
17,CGATGCACGTGTGTAA,0.06
18,GGTGACACGTGAAGTA,0.37
19,GAGTGCACGTGAGAGC,0.3
20,TTGATCACGTGTTTGA,0.1
21,GCGGGCACGTGGTTGT,-0.13
22,ATTGGCACGTGTCGCT,-0.1
23,TAGTGCACGTGGCGGA,-0.14
24,GGCGTCACGTGCAGGG,0.05
25,ATAATCACGTGAAGGA,0.27

row,Sequence,relative binding free energy [kcal/mol]
1,ACGTTCACGTGTGAGG,0.17
2,TTTTACACGTGTGTGC,0.15
3,ATACTCACGTGTAAGG,0.22
4,AACGTCACGTGAGTTG,0.24
5,TCGCACACGTGTTGGT,0.1
6,GGTGGCACGTGAACGT,0.13
7,GTGATCACGTGGATGC,0.19
8,GGTTACACGTGGGTTC,0.15
9,GTAGTCACGTGATTCG,0.18
10,TGTGGCACGTGGACAG,-0.06
11,TTTAGCACGTGCGCGG,-0.26
12,ACTGGCACGTGCATGG,-0.12
13,GTTTACACGTGGGTGA,-0.03
14,GATGGCACGTGGTGTC,-0.13
15,GAAAACACGTGGTTGT,0.04
16,GTGGGCACGTGGTGCC,-0.12
17,GCGAGCACGTGATGTG,0.19
18,GGGAGCACGTGTGGAG,-0.05
19,ATATTCACGTGAGGCG,0.37
20,TTCGTCACGTGCGTTA,-0.03
21,GTATGCACGTGTTTGA,0.04
22,ATTCGCACGTGTAAGT,0.01
23,TGTTGCACGTGGCTCT,-0.15
24,GTATGCACGTGGCAGG,-0.03
25,CTGTGCACGTGGGGGT,-0.2

row,Sequence,relative binding free energy [kcal/mol]
1,CTTTGCACGTGTCAGT,0.01
2,GCTAACACGTGTGTGA,0.12
3,CTTTGCACGTGGGGTT,-0.15
4,TTTAGCACGTGAATGC,0.25
5,CATGGCACGTGTTGGA,-0.06
6,TATTACACGTGACGGT,0.14
7,TTCATCACGTGGGCGT,-0.01
8,TTTATCACGTGAATGG,0.39
9,TTTGCCACGTGGGTAT,-0.28
10,AGCGACACGTGGGTTA,-0.08
11,GGTGGCACGTGCTTGG,-0.04
12,TGTTACACGTGGTCGG,-0.02
13,GTGATCACGTGGAGAT,0.21
14,ACTGGCACGTGGTGCT,-0.2
15,TACTCCACGTGGGTGT,-0.17
16,CAGTGCACGTGTAGTT,-0.13
17,TAGCGCACGTGGTTAG,-0.3
18,TTAGGCACGTGATAAT,0.01
19,ATCATCACGTGTAGTG,0.01
20,TATCTCACGTGAGGGC,0.42
21,TATAACACGTGTCAGG,0.19
22,AAGGTCACGTGGGTCC,0.03
23,AGAGACACGTGGAGGT,0.02
24,ATAGTCACGTGGTATT,0.04
25,TGTTTCACGTGCAATA,0.11

row,Sequence,relative binding free energy [kcal/mol]
1,CGGCACACGTGGGGGT,-0.14
2,GTGGTCACGTGAGTGA,0.4
3,TCGTACACGTGGATGA,0.16
4,ATCGGCACGTGAGGGA,0.13
5,CAGAGCACGTGTTGTA,-0.07
6,TAATACACGTGAGGTT,0.24
7,GCGGACACGTGGGGGT,-0.12
8,TTGGACACGTGTTGTA,0
9,CGTACCACGTGGTGGT,-0.21
10,TTTTCCACGTGTAGGC,0.26
11,TTGGTCACGTGCGGTC,0.09
12,AGTCGCACGTGGGCTT,-0.13
13,TAATGCACGTGGACGT,0.14
14,TAGTACACGTGAAATT,0.44
15,TGTGTCACGTGTCGGT,0.07
16,AAGGACACGTGGTTGG,-0.02
17,GTTGTCACGTGTTTGG,0.22
18,GATGTCACGTGTTGAG,0.08
19,CTGTTCACGTGGAGTG,0.24
20,ATTAGCACGTGGTATT,-0.19
21,AGAATCACGTGAGGTG,0.39
